In patent publication EP1656945A1, “Pharmaceutical composition comprising oligoarginine” (THE BOARD OF TRUSTEES OF THE LELAND STANFORD JUNIOR …, priority 1999, dated 2006):
Part of at least one peptide drawing is inferred or uncertain, most often the ends. Some entries repeat one wording, which the source may state once for all of them. Where a SMILES comes first, the peptide text is derived from it. Where no end group is shown, it is not given here. The star is where a group is joined. Biotin = O=C1N[C@H]2[C@H](CS[C@H]2CCCCC(=O)*)N1

Columns and labels:
Rat aortic VSMC = test: VSMC proliferation assay (XTT); assay type: cell-based; conditions: 10.0 µM, 30 minutes, then growth medium containing 0.5% FBS for 48 hours, compared to vehicle
vein grafts [1] = test: Ex vivo NOx production from vein grafts harvested 3 days after surgery; parameters: species or system New Zealand white rabbits; conditions: vein immersed in 10.0 µM for 30 minutes, absence of calcium ionophore
cytokine-stimulated VSMC = test: Effect of arginine oligomers on NO production (NO2, Griess reaction) in cytokine-stimulated VSMC; assay type: cell-based, rat; conditions: for effect of N-terminal acetylation of the L-peptide on NO production: N-terminally acetylated peptide, after 24 hours; for degree of enhancement of NO production: versus vehicle treated cytokine-stimulated cells, mean ± SEM, concentration not given
vein grafts [2] = test: Vein graft model, vessel morphometry on the 28th day after surgery; assay type: in vivo, New Zealand white rabbits; conditions: 28 days after surgery; for intima/media ratio (I/M) / reduction of intimal area: 10.0 µM for 30 minutes; for intimal area: vein immersed in 10.0 µM for 30 minutes before grafting; for reduction of intimal area: versus control
iNOS protein = iNOS protein expression by western blotting; assay type: cell-based, rat; conditions: 10µM, 30 minutes exposure, cells stimulated with IFN-γ and LPS
[3] = tested on: human umbilical vein endothelial cells (ECV304); test: In vitro translocation of biotin-labeled peptides into endothelial cells; assay type: cell-based
[4] = tested on: coronary arteries of the transplanted heart; test: Heterotopic heart transplant study of graft coronary artery disease (GCAD); assay type: in vivo, rat; conditions: for transfection of coronary vessels: biotinylated oligomer infused, biotin positive nuclei / total nuclei; for % affected vessels / % luminal narrowing / I/M ratio: intracoronary 50 uM for 30 minutes
[5] = tested on: rabbit carotid artery segment; test: Ex vivo translocation of biotin-labeled peptides into carotid artery segments; parameters: species or system New Zealand white rabbits; conditions: 10.0 µM, incubation for 30 minutes
Experimental: After incubation with biotin labeled oligomer, vascular segments were washed, then frozen in OCT compound (Miles Scientific). Frozen sections, 5 µm thick, were fixed with acetone for 10 minutes. Internalized biotin was detected using the staining procedure described in Example 2. Methyl green was used for nuclear counter staining.
To quantify the efficiency of nuclear translocation, the numbers of both DAB positive nuclei and total nuclei were counted in the intima and media separately at X400 magnification with a video image analysis system (Automatrix). The frequency of nuclear translocation was expressed as the percent staining of nuclei, defined as the ratio of the number of DAB positive nuclei to that of all nuclei, in the intima and media. Each protocol was repeated 4 times.
Both carotid artery and jugular vein segments of male New Zealand white rabbits were used. To test the dose dependence of R7 translocation, vascular segments were incubated for 30 minutes with either bL-R7 or bD-R7 solution (0.1, 1.0, and 10.0 µM) in serum-free Dulbecco's minimal essential medium (DMEM) (Gibco BRL). To test the incubation time dependence, vascular segments were incubated with 10.0 µM of biotin labeled R7 solution for 10 seconds, 60 seconds, 5 minutes, 10 minutes, and 30 minutes. […]

[6] = tested on: rat vascular smooth muscle cells (VSMC); test: Translocation of biotin-labeled peptides into cultured VSMC (HRP-streptavidin/DAB staining); assay type: cell-based; conditions: 10µM, 30 minutes, 37°C
jugular vein segments = test: Ex vivo translocation of biotin-labeled peptides into jugular vein segments; parameters: species or system New Zealand white rabbits; conditions: 10 µM, incubation for 30 minutes
[7] = pretreatment 30 minutes, then IFN-γ (100U/ml) and LPS (100µg/ml) 24 hours, 100 µM extracellular L-arginine, increases at doses as low as 10µM

| Compound | VSMC proliferation (Rat aortic VSMC) | Basal NOx production (vein grafts [1]) | NO production (cytokine-stimulated VSMC; 100µM, 30 minutes) | intima/media ratio (I/M) (vein grafts [2]) | intimal area (vein grafts [2]) | reduction of intimal area (vein grafts [2]) | effect of N-terminal acetylation of the L-peptide on NO production (cytokine-stimulated VSMC) | NO production (cytokine-stimulated VSMC; [7]) | degree of enhancement of NO production (cytokine-stimulated VSMC; pretreatment 30 minutes) | transfection of coronary vessels [4] | % affected vessels ([4]; 60 days) | % luminal narrowing ([4]; 60 days) | I/M ratio ([4]; 60 days) | % affected vessels ([4]; 90 days) | % luminal narrowing ([4]; 90 days) | I/M ratio ([4]; 90 days) | further results |
| --- | --- | --- | --- | --- | --- | --- | --- | --- | --- | --- | --- | --- | --- | --- | --- | --- | --- |
| N=C(N)NCCC[C@@H](N)C(=O)N[C@H](CCCNC(=N)N)C(=O)N[C@H](CCCNC(=N)N)C(=O)N[C@H](CCCNC(=N)N)C(=O)N[C@H](CCCNC(=N)N)C(=O)N[C@H](CCCNC(=N)N)C(=O)N[C@H](CCCNC(=N)N)C(=O)O [D-r7, hepta-D-arginine] | significantly inhibited | 48±8 nM/mg tissue/hr | did not increase the NO production | 0.8±0.2 | 1.1±0.4 mm^2 | about 35% |  |  |  |  |  |  |  |  |  |  |  |
| N=C(N)NCCC[C@H](NC(=O)[C@H](CCCNC(=N)N)NC(=O)[C@H](CCCNC(=N)N)NC(=O)[C@H](CCCNC(=N)N)NC(=O)[C@H](CCCNC(=N)N)NC(=O)[C@H](CCCNC(=N)N)NC(=O)[C@@H](N)CCCNC(=N)N)C(=O)O [R7, hepta-L-arginine] | significantly inhibited | 80±14 nM/mg tissue/hr |  | 0.4±0.2 | 0.5±0.2 mm^2 | more than 70% | no significant effect on NO production | dose-dependent increases in NO production | 24±3.8% |  |  |  |  |  |  |  | expression levels of iNOS (iNOS protein): had no effect on the expression levels of iNOS; distribution or intensity of internalized biotin, L versus D form ([3]; D form compared with L form of heptaarginine, cells in culture): no observable differences in the distribution or intensity of internalized biotin; NO biosynthesis (cytokine-stimulated VSMC; VSMCs exposed for 5 minutes): a sustained increase in NO biosynthesis was observed for 24 hours; NO production (cytokine-stimulated VSMC; pretreatment 10µM): significant elevation of NO production; enhancement of NO production with NO synthase inhibitor (cytokine-stimulated VSMC; treated cells subsequently treated with L-NMMA (1mM)): the enhancement of NO production was abolished |
| N=C(N)NCCC[C@H](NC(=O)[C@H](CCCNC(=N)N)NC(=O)[C@H](CCCNC(=N)N)NC(=O)[C@H](CCCNC(=N)N)NC(=O)[C@H](CCCNC(=N)N)NC(=O)[C@H](CCCNC(=N)N)NC(=O)[C@H](CCCNC(=N)N)NC(=O)[C@H](CCCNC(=N)N)NC(=O)[C@@H](N)CCCNC(=N)N)C(=O)O [R9, nona-L-arginine] |  |  |  |  |  |  | no significant effect on NO production | dose-dependent increases in NO production | 44±5.2% | marked transfection of the intima and media of coronary vessels | 6.5 ± 6.9% | 3.2 ± 3.8% | .03 ± .04 | 4.9 ± 7.1% | 1.6 ± 3.3% | 01 ± 02 |  |
| NCCCC[C@H](NC(=O)[C@H](CCCCN)NC(=O)[C@H](CCCCN)NC(=O)[C@H](CCCCN)NC(=O)[C@H](CCCCN)NC(=O)[C@H](CCCCN)NC(=O)[C@H](CCCCN)NC(=O)CCCC[C@@H]1SC[C@@H]2NC(=O)N[C@@H]21)C(=O)O [bK7, biotin-labeled heptalysine, reference compound] (Biotin-KKKKKKK-OH) |  |  |  |  |  |  |  |  |  |  |  |  |  |  |  |  | biotin signal (stained cells) [5]: no stained cells were apparent; internalized biotin signals ([3]; control treatments, 30 minutes incubation (peptides 0.1, 1.0, and 10.0 µM)): No internalized biotin signals were detected; internalized biotin signal (staining) [6]: no internalized biotin signal was observed; biotin signal (stained cells) (jugular vein segments): no stained cells were apparent |
| KKKKKKK [K7, hepta-L-lysine, reference compound] |  |  | did not increase the NO production |  |  |  |  |  |  |  |  |  |  |  |  |  |  |
| RRRRR [R5, penta-L-arginine, reference compound] |  |  |  |  |  |  | no significant effect on NO production | no significant enhancement of NO production |  | minimal transfection of coronary vessels | 18.9 ± 7% | 12.6 ± 6.7% | .13 ± .07 | 18.5 ± 11.9% | 14.2 ± 12% | .16 ± .14 |  |
